The supplement of paper PMC3334620
Whole data set: some 33,000 sequences, median “E-score (-0.5 to 0.5)” near -0.017, cut for the highest 2% near 0.3. This is one part of the list.

Target: T1, Sut1 (UniProt P53032)
T1 sequence: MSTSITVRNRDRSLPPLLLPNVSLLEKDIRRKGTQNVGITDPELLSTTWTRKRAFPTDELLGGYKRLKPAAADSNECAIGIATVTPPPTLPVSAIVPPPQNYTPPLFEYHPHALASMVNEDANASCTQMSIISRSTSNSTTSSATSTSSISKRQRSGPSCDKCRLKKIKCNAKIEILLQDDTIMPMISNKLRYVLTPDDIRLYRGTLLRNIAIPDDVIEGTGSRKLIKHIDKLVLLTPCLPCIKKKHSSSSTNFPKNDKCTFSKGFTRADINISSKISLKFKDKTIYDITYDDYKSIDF
Experiment: PBM E-score (8-mer binding enrichment) (E-score (-0.5 to 0.5)); higher = stronger / more preferred TF binding; most listed sequences are background and not binding sites
Settings: protein concentration: 200 nM; construct: GST-full length
How it was run: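 The E-score, a modified Wilcoxon-Mann-Whitney statistic, was computed by the Universal PBM Analysis Suite for every ungapped eight-base word pooled with its reverse complement. Scans behind it were normalised with masliner after bound GST-tagged yeast transcription factors were detected with fluorescent anti-GST. The proteins, at about 100-200 nM, had been applied to universal all-10-mer Agilent arrays made double-stranded by primer extension.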

| Sequence | PBM E-score |
| --- | --- |
| TCAAGTGA | 0.0149 |
| ACTTCGCA | -0.132 |
| ACACCGTA | -0.0843 |
| CAGGTAGC | -0.194 |
| CCTCATCC | -0.193 |
| CTGGGGAA | -0.255 |
| AGAACCTC | -0.0985 |
| TAATTGTA | 0.205 |
| CCGTAGCG | -0.0307 |
| ATCATCAC | -0.0468 |
| GTTACATA | 0.126 |
| ACTTTGTG | 0.0897 |
| ACGCGGGA | 0.0369 |
| GCCTGCAC | -0.178 |
| CGCCACGA | -0.0774 |
| ACCAAATA | 0.117 |
| CTCTCATA | 0.0812 |
| GTTCGGTA | 0.141 |
| TGGCCGAA | 0.106 |
| AACGGATG | 0.0106 |
| CGTCTACA | -0.181 |
| CATGACAC | 0.135 |
| CGATGCTA | 0.0352 |
| CAGGGTGA | -0.156 |
| CGTGCGCA | -0.0836 |

| Sequence | PBM E-score |
| --- | --- |
| CCCTAAGC | -0.245 |
| CCAACATA | 0.226 |
| CAAGTCTG | -0.217 |
| AGTCGCTC | -0.0692 |
| ATCTGAAC | 0.0467 |
| ACTTCTGG | -0.16 |
| CAGCATTC | -0.193 |
| TAACTTGA | 0.161 |
| CGTCTTCC | -0.0771 |
| GCCATCAA | -0.16 |
| CCTACGCA | -0.132 |
| AGCCTACT | -0.134 |
| ATCGTCCC | 0.00149 |
| AAGCGTCG | -0.0688 |
| GTTGCCGA | 0.0843 |
| GACCGAGA | 0.229 |
| AACCTCGC | -0.147 |
| CCCTCCAG | -0.281 |
| CGTGCCAG | -0.145 |
| AAGGTGAT | 0.0343 |
| AGGCAGCA | -0.169 |
| CCTTAGAC | -0.132 |
| ACCACAAA | 0.148 |
| CCGACGAC | 0.12 |
| AATATAAT | 0.193 |

| Sequence | PBM E-score |
| --- | --- |
| CTCCATTA | 0.0218 |
| CTGCTGGA | -0.292 |
| CCATGACA | -0.152 |
| CAGTATCG | 0.00749 |
| ACAAGCCA | -0.0804 |
| ACCTATTA | 0.114 |
| ATAAACTC | 0.315 |
| CGGCAAGC | -0.0429 |
| CCGCACAG | -0.0894 |
| ATTCATAA | 0.127 |
| AGGCAATG | -0.0382 |
| CTCGTGCC | -0.209 |
| CCCTGGCG | -0.282 |
| ATATCCTC | 0.0549 |
| CTATATCC | 0.0772 |
| GACCTTAA | -0.0227 |
| AGGGTGAC | -0.177 |
| CAACTTGG | -0.0845 |
| AGGGTGAG | -0.191 |
| AGAGTACT | -0.0898 |
| CGACATTC | -0.0101 |
| AACTGAAT | -0.184 |
| GCCTCCCC | -0.329 |
| CTCGTCGA | -0.0555 |
| GCAGACGC | -0.0272 |

| Sequence | PBM E-score |
| --- | --- |
| AAGGGGTC | -0.325 |
| GAGGTACA | -0.174 |
| CTATTCGC | -0.124 |
| GTAATCAA | 0.0731 |
| AACTATCT | 0.0634 |
| CCCCCTGC | -0.335 |
| AGTCCTGC | -0.19 |
| CTGAGCAC | -0.148 |
| AGTTTAGA | 0.267 |
| ACAGATCC | 0.197 |
| ACAAGTCG | -0.264 |
| CCTATAAG | -0.0978 |
| AGGTGGAA | 0.0437 |
| AAACACGT | 0.116 |
| AATCAATT | 0.259 |
| AGCTAGCG | -0.184 |
| ATACGTCC | 0.0728 |
| AGGCACTA | -0.174 |
| AGGATACC | -0.0483 |
| CTCGGCAA | 0.0287 |
| ACCGAAGA | 0.222 |
| CAAGCAAC | -0.124 |
| AATTCTAG | 0.131 |
| ATTGGCTA | 0.0446 |
| GTAACGTA | 0.0551 |

| Sequence | PBM E-score |
| --- | --- |
| CTTTATCC | 0.00753 |
| GTGACCAA | 0.0651 |
| CTCTGGCC | -0.251 |
| ATGATACG | 0.227 |
| AGATTTCG | 0.219 |
| AGAGTTGA | 0.0231 |
| CATTTCTA | 0.228 |
| GAACCCAC | 0.0354 |
| ACCGGCCG | 0.135 |
| TGTACCAA | -0.0282 |
| GAAGTCCC | -0.219 |
| GACGGGAA | -0.132 |
| TCACAGCA | 0.0299 |
| GAATTAGC | 0.0359 |
| TGCGCAAA | 0.0678 |
| AACACACA | -0.00438 |
| AAAGTAAT | 0.204 |
| AGAAGTAC | -0.186 |
| GAGATCAC | -0.0626 |
| GCGGTACC | -0.0706 |
| GTCGTGAA | -0.257 |
| TGCCAGCA | -0.128 |
| CAAGGTTA | 0.00016 |
| CAGACCAA | 0.0753 |
| ACCTCCGC | -0.104 |

| Sequence | PBM E-score |
| --- | --- |
| CAAGCACA | -0.196 |
| AATAATTG | 0.18 |
| CTTGTTCA | 0.032 |
| ACAGTGGG | -0.195 |
| AAAGTATA | 0.214 |
| CCGTACGG | -0.00184 |
| ATAACGAA | 0.191 |
| AACGGCGG | -0.0398 |
| CAACAGGG | -0.117 |
| AGCGACCG | -0.0654 |
| ACAGAGTG | -0.124 |
| AGAATAAA | 0.274 |
| AGGGACAT | -0.134 |
| GACGGCTA | 0.0151 |
| GTGCCTAA | -0.161 |
| AATGATAT | 0.261 |
| TAAGAATA | -0.086 |
| ATGCGTCG | -0.0134 |
| CATGCCCG | 0.0529 |
| GCAAAATA | 0.254 |
| GCAATAGC | 0.0227 |
| CTTCTTCA | -0.102 |
| GGTCGACC | 0.0475 |
| ATCAGTAA | 0.125 |
| CGCAATGA | -0.0747 |

| Sequence | PBM E-score |
| --- | --- |
| CATCATAA | 0.166 |
| CCGTGGTA | -0.156 |
| CCAGAAAA | 0.137 |
| CTAATGAC | -0.1 |
| AACGGCCC | -0.142 |
| CAGTAAAA | 0.177 |
| ACGGTATC | -0.0822 |
| ATCGTGAA | 0.168 |
| CCGATAGA | -0.00095 |
| CAACAACG | 0.00201 |
| CCTTTAGA | 0.0635 |
| TATCACGA | -0.0001 |
| ATATAAGG | 0.205 |
| CCATCAGG | -0.325 |
| ACAAACCT | -0.0104 |
| AATTTCAA | 0.215 |
| GTAAGAAC | 0.215 |
| CTCGTAAC | -0.00465 |
| GTATGCTA | -0.0844 |
| CACCACAA | -0.108 |
| CCGCTAGG | -0.00352 |
| GTAATATA | 0.281 |
